Laboratory results taken from paper PMC9296036, “A peptide interfering with the dimerization of oncogenic KITENIN protein and its stability suppresses colorectal tumour progression” (Clinical and Translational Medicine, 2022).
These are yes or no findings as the source states them, for the method shown. Binding seen in cells or lysates may run through a third protein. Some results given as binding are weak or reduced against the parent protein; the word gives no strength. Where a sequence is shown, tags or fusion partners need not be part of it. Values belong to the molecule of their own block, whether it stands above or below them.

Sequences of proteins named here, by UniProt entry; tags and fusion partners are left off.
UniProt Q9HD67: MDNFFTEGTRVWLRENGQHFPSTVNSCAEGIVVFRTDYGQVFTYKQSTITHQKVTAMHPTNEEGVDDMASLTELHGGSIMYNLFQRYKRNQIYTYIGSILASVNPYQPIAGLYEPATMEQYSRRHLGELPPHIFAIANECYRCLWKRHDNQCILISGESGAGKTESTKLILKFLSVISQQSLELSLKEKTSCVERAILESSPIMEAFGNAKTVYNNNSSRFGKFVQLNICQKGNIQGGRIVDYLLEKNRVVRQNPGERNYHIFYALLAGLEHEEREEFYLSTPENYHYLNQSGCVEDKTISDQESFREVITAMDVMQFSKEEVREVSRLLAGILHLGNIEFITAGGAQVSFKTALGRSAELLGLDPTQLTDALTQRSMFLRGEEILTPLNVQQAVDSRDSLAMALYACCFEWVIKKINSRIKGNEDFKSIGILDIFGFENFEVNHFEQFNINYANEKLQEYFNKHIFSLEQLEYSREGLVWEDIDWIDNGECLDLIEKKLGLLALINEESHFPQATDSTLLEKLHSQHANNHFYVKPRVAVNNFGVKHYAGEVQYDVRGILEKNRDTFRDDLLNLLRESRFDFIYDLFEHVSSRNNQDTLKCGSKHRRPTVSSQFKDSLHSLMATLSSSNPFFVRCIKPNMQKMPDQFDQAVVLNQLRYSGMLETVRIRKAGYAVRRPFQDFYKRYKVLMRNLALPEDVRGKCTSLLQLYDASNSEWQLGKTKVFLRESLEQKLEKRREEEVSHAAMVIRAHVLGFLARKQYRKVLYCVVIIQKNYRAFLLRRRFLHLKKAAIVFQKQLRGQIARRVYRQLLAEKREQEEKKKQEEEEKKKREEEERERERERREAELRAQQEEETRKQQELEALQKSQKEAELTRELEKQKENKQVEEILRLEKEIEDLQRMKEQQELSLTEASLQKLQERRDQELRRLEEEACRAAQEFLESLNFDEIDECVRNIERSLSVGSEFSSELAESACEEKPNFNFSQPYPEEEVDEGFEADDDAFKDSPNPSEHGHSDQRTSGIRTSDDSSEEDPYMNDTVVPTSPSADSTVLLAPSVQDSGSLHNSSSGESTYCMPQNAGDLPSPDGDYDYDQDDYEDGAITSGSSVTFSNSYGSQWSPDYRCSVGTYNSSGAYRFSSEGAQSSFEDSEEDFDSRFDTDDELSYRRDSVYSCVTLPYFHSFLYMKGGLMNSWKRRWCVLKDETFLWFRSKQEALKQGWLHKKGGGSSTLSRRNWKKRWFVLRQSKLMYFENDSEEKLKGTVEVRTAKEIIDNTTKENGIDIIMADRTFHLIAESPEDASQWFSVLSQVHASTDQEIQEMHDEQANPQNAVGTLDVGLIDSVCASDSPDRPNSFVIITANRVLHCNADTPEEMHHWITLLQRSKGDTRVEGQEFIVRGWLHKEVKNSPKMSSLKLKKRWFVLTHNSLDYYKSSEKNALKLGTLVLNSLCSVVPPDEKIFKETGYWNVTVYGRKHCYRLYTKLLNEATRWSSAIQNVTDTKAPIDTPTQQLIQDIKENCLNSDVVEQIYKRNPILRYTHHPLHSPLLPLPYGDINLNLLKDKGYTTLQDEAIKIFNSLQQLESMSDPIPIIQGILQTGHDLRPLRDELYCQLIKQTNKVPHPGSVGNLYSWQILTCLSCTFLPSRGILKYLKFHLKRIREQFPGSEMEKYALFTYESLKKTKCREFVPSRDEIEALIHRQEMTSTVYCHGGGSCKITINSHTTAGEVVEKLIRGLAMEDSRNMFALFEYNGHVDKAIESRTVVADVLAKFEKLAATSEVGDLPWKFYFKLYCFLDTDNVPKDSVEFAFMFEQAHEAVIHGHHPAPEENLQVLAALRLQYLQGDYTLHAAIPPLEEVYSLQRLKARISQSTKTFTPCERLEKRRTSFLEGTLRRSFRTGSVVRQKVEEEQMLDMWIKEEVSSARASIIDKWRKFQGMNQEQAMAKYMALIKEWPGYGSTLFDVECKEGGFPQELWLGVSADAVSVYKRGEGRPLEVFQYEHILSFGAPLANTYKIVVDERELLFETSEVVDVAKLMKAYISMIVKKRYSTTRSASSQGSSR

Legend:
[1] = molecular target: T1, GST-tagged KITENIN-CTD (intracellular C-terminal region without membrane portion) (UniProt Q8TAA9); assay: pull-down; bacterially expressed, purified GST-tagged KITENIN deletion constructs incubated with cell lysates containing Myo10; immunoblot with anti-Myo10 antibody; only the target purified
T1 sequence: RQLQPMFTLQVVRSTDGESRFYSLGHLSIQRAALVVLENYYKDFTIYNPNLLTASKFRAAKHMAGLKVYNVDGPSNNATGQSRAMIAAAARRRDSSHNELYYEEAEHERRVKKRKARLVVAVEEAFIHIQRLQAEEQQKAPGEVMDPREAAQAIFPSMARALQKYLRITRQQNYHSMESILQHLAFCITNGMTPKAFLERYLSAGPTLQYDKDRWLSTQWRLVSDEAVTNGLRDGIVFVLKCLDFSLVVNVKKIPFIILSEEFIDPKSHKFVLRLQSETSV

[2] = molecular target: T2, GST-tagged KITENIN ΔNΔC (110–240) (UniProt Q8TAA9); assay: as above
T2 sequence: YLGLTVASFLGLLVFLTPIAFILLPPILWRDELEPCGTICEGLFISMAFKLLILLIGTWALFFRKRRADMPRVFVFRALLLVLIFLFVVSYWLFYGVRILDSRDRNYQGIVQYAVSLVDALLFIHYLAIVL

[3] = molecular target: T3, GST-tagged KITENIN ΔC (1–240) (UniProt Q8TAA9); assay: as above
T3 sequence: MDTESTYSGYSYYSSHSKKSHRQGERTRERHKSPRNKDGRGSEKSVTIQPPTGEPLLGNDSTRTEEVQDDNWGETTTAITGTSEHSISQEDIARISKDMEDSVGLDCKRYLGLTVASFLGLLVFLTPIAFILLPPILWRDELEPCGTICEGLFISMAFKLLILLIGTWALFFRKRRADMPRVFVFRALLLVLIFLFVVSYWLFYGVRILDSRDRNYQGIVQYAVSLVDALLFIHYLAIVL

[4] = molecular target: T4, GST-tagged full-length KITENIN (UniProt Q8TAA9); assay: as above
T4 sequence: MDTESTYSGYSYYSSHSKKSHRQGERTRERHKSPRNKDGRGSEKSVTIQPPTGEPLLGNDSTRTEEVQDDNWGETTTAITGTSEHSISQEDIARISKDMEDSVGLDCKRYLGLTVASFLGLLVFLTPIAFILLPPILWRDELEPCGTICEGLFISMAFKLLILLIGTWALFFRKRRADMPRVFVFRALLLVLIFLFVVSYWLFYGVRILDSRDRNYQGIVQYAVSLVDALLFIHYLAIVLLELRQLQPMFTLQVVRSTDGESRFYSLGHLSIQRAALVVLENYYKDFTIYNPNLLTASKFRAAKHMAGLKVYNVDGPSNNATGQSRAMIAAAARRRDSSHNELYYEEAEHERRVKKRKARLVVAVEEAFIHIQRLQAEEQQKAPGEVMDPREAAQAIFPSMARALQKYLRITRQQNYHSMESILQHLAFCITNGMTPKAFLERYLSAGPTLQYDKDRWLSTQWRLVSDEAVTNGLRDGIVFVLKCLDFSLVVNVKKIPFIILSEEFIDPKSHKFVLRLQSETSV

[5] = molecular target: T5, GST-tagged KITENIN ΔN (110–524) (UniProt Q8TAA9); assay: as above
T5 sequence: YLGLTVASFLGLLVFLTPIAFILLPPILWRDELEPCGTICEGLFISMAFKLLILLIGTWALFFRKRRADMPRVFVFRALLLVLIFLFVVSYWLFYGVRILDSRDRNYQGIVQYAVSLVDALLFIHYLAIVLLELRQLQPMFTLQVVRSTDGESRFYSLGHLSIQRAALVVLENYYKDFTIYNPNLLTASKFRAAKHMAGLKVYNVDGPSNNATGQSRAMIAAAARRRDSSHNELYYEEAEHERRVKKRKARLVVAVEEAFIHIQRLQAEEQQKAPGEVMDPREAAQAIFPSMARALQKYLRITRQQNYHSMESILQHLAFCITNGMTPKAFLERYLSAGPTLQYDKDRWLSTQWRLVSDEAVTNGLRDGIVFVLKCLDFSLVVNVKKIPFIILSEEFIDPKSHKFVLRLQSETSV

V5-tagged KITENIN [6] = molecular target: T6, V5-tagged KITENIN (UniProt Q8TAA9); assay: co-IP; Caco2/KITENIN-V5 cells treated with KDIP, IP with anti-V5 antibody, immunoblot for Myo10
T6 sequence: T4 sequence

V5-tagged KITENIN [7] = molecular target: T6, V5-tagged KITENIN; assay: co-IP; Caco2/KITENIN-V5 cells, IP with anti-V5 antibody, immunoblot for Myo10 and eEF2; with or without KDIP
[8] = molecular target: T7, Myc-tagged KITENIN (KAI1 C-terminal interacting tetraspanin; Vangl1) (UniProt Q8TAA9); assay: co-IP; whole-cell lysates of HEK293T, Caco2 or HCT116 cells co-transfected with two differently tagged KITENIN constructs (V5, Myc); IP with anti-Myc or anti-V5, immunoblot; also with increasing doses of KITENIN-CTD-HA co-expressed
T7 sequence: T4 sequence

Δ463–471-KITENIN-V5 = molecular target: T8, Δ463–471-KITENIN-V5 (UniProt Q8TAA9); assay: as above
T8 sequence: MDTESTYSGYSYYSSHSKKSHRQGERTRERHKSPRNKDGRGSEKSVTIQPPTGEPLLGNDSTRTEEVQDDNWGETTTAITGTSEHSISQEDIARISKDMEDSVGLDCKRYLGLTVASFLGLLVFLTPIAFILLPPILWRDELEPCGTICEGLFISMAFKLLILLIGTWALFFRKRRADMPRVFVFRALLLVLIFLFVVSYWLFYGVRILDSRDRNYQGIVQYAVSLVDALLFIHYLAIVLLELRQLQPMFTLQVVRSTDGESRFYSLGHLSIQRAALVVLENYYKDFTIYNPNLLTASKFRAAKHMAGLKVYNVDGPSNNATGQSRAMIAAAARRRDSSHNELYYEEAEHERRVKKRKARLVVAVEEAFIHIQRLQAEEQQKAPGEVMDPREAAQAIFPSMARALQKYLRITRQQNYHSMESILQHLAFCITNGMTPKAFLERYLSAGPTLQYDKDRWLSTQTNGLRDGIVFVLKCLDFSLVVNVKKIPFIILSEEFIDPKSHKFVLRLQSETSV

[9] = molecular target: T7, Myc-tagged KITENIN (KAI1 C-terminal interacting tetraspanin; Vangl1); assay: co-IP; cytosol and membrane fractions of Caco2 cells transfected with KITENIN-Myc and KITENIN-V5 for 48 h; IP of the membrane fraction
[10] = molecular target: T7, Myc-tagged KITENIN (KAI1 C-terminal interacting tetraspanin; Vangl1); assay: proximity ligation; Caco2 cells transfected with KITENIN-Myc and KITENIN-HA, primary antibodies against the tags, Duolink probes, confocal microscopy
V5-tagged KITENIN [11] = molecular target: T6, V5-tagged KITENIN; assay: co-IP; Caco2 cells co-transfected with KITENIN-V5 and KITENIN-Myc and with si-Myo10 for 48 h; IP with anti-V5
V5-tagged KITENIN [12] = molecular target: T6, V5-tagged KITENIN; assay: co-IP; whole-cell lysates of HEK293T, Caco2 or HCT116 cells co-transfected with two differently tagged KITENIN constructs (V5, Myc); IP with anti-Myc or anti-V5, immunoblot; also with increasing doses of KITENIN-CTD-HA co-expressed
[13] = molecular target: T2, GST-tagged KITENIN ΔNΔC (110–240); assay: pull-down; purified GST-fused KITENIN forms from E. coli on glutathione-sepharose beads, incubated with lysates of 293T cells expressing full-length KITENIN-myc; immunoblot with myc antibody; only the target purified
[14] = molecular target: T3, GST-tagged KITENIN ΔC (1–240); assay: as above
[15] = molecular target: T4, GST-tagged full-length KITENIN; assay: as above
[16] = molecular target: T5, GST-tagged KITENIN ΔN (110–524); assay: as above

binding [1]: no binding
binding [2]: binds
binding [3]: binds
binding [4]: binds
binding [5]: binds
Molecule: Myo10 in cell lysates (GST pull-down of Figure 5A) (from UniProt Q9HD67 1-2058)

binding (V5-tagged KITENIN [7]): binds
Molecule: myosin-X (Myo10), endogenous (from UniProt Q9HD67 1-2058)
binding (V5-tagged KITENIN [6]): no binding (condition: cells treated with KDIP)

binding [8]: no binding
B1: KITENIN-CTD-HA (domain or fragment, UniProt Q8TAA9 244-524)
chain: T1 sequence

binding (Δ463–471-KITENIN-V5): binds
B2: Δ463–471-KITENIN-Myc (protein, UniProt Q8TAA9)
chain: T8 sequence

binding [8]: binds
binding [9]: binds
B3: V5-tagged KITENIN (natural protein, UniProt Q8TAA9 1-524, looked up)
chain: T4 sequence
notes: KITENIN (Vangl1), wild type; also called KITENIN-V5; WT-KITENIN

binding [10]: binds
B4: HA-tagged KITENIN (protein, UniProt Q8TAA9 1-524)
chain: T4 sequence

binding (V5-tagged KITENIN [11]): binds weakly
binding (V5-tagged KITENIN [12]): binds
binding [13]: no binding
binding [14]: no binding
binding [15]: binds
binding [16]: binds
B5: Myc-tagged KITENIN (KAI1 C-terminal interacting tetraspanin; Vangl1) (protein, UniProt Q8TAA9 1-524)
chain: T4 sequence
